{"source": "PubChem BioAssay AID1460", "about": "(National Center for Advancing Translational Sciences (NCATS), 2008)", "note": "“And” between values parts separate entries of the source, which are not always exact repeats. Equal entries are not always repeated. Out of some 270,000 compounds screened, about 5,800 (2.1%) were called active. The shares of active, inactive and inconclusive entries below differ from those in the screen. The call rests on the fitted dose curve; in most records, active means well fitted inhibition curve with a large enough effect; inconclusive means small, poorly fitted or top-dose-only effect; inactive means flat fitted curve, though single readings scatter. A potency beside an inconclusive call is a rough fit, not a confirmed value. On the % scale 0 is the no-effect control and ±100 the full control effect; potency means the concentration at half of the fitted maximal effect; tags describe the fitted curve by direction and shape."}
{"biological_target": "Microtubule-associated protein tau (Homo sapiens) (UniProt P10636)", "sequence (P10636 whole entry, looked up)": "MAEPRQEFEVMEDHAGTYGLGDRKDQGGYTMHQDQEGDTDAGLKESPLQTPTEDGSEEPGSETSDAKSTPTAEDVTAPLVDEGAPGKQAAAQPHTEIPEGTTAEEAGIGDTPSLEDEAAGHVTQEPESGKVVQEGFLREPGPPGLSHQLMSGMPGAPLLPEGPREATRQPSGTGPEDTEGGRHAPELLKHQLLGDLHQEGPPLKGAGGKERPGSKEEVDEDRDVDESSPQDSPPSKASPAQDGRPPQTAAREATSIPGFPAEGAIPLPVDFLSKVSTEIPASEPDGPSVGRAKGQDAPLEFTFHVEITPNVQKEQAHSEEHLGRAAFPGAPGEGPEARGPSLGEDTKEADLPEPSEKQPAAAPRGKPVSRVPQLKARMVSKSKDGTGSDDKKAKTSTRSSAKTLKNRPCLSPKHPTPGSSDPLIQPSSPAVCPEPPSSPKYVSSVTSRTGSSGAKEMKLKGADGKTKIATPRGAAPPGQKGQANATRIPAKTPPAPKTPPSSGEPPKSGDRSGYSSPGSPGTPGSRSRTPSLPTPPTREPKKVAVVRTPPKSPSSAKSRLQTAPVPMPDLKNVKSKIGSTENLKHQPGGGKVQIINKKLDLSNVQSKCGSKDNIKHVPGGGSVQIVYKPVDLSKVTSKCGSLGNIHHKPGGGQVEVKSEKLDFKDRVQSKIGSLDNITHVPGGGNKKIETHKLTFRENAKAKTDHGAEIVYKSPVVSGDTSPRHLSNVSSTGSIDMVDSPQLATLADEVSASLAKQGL", "test": "qHTS for Inhibitors of Tau Fibril Formation, Thioflavin T Binding; further: nearly all actives have a fitted effect of over 55% in size", "details": "recombinant tau K18 P301L, heparin-induced fibrillization, ThT fluorescence; series mostly up to 57.4 µM; activity, negative = inhibition: at the top concentration", "in_short": "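ThT emission at 510 nm, taken 1 hr after adding 30 uM dye, quantifies aggregates formed when 20 uM heparin acts on human tau K18 P301L for 6 hr at 37 C.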"}
{"molecule": "COc1cccc(/C=N/NC(=O)CCCC(=O)Nc2ccc(Br)cc2)c1", "Potency": "inconclusive: 2.82 µM [inhibitor, partial curve]"}
{"molecule": "CC(C)c1ccc(C(=O)CC2(O)C(=O)N(CCc3ccccc3)c3ccc(Cl)cc32)cc1", "note": "(centres undefined)", "activity, negative = inhibition": "inactive: -3.27%"}
{"molecule": "Cc1cc2ccccn2c1C(=O)c1ccc([N+](=O)[O-])o1", "Potency": "inconclusive: 14.1 µM [inhibitor, partial curve]"}
{"molecule": "CCOC(=O)c1cccc(Nc2ncnc3ccccc23)c1", "Potency": "inconclusive: 25.1 µM [inhibitor, partial curve]"}
{"molecule": "COc1ccc(C(=O)N/N=C(/C)c2ccc(N3CCCCC3)cc2)cc1", "Potency": "inconclusive: 1.12 µM [inhibitor, full curve]"}
{"molecule": "O=C(/C=C/c1ccc(O)c(O)c1)OCCc1ccccc1", "Potency": "inconclusive: 12.6 µM [inhibitor, partial curve] and inconclusive: 3.16 µM [inhibitor, partial curve] and inconclusive: 6.31 µM [inhibitor, partial curve]"}
{"molecule": "O=C(CSc1nnc(-c2ccncc2)o1)Oc1ccccc1", "Potency": "inconclusive: 17.8 µM [inhibitor, partial curve]"}
{"molecule": "Cc1ccc(C(=O)Nc2ncc(C)s2)o1", "activity, negative = inhibition": "inactive: -0.647%"}
{"molecule": "CNc1ncnc2ccc(-c3ccccc3OC)cc12", "activity, negative = inhibition": "inactive: -0.56%"}
{"molecule": "Cn1c(C(=O)NCCCN2CCOCC2)cc2c(=O)n(C)c3ccccc3c21", "activity, negative = inhibition": "inactive: -12.8%"}
{"molecule": "O=[N+]([O-])c1ccc(NCCNCCOc2nonc2-c2ccccc2)c([N+](=O)[O-])c1", "Potency": "inconclusive: 7.94 µM [inhibitor, partial curve]"}
{"molecule": "O=C1CC(Nc2ccc(N3CCOCC3)cc2)C(=O)N1c1cccc(C(F)(F)F)c1", "note": "(centres undefined)", "Potency": "active: 15.8 µM"}
{"molecule": "Cc1cc(C(=O)OCC(=O)N2CC(=O)Nc3ccccc32)c(C)n1-c1ccc(F)cc1", "Potency": "inconclusive: 39.8 µM [inhibitor, single point]"}
{"molecule": "N#Cc1c(N2CCN(C(=O)c3ccccc3)CC2)nc(-c2ccccc2)c2c1CCCC2", "Potency": "inconclusive: 25.1 µM [inhibitor, partial curve]"}
{"molecule": "C/C(=N\\Nc1ccc([N+](=O)[O-])cc1)c1ccc(N2CCOCC2)cc1", "Potency": "inconclusive: 0.631 µM [inhibitor, full curve]"}
{"molecule": "Cc1cc(-c2csc3nc[nH]c(=S)c23)cc(C)c1C", "activity, negative = inhibition": "inactive: -9.45%"}
{"molecule": "O=C1N=C(N2CCOCC2)S/C1=C/c1cc2c(cc1[N+](=O)[O-])OCO2", "Potency": "active: 17.8 µM"}
{"molecule": "Cc1ccc(NC(=O)c2cnc3cc(C)ccn3c2=O)c(C)c1", "Potency": "inconclusive: 12.6 µM [inhibitor, single point]"}
{"molecule": "O=C(N/N=C/c1cccc(OC(=O)c2ccco2)c1)c1ccc(F)cc1", "Potency": "inconclusive: 44.7 µM [inhibitor, single point]"}
{"molecule": "COc1ccc(Nc2nc(N)nc(CCl)n2)cc1", "Potency": "inconclusive: 11.2 µM [inhibitor, partial curve]"}
{"molecule": "CC(=O)Oc1ccc(N2C(=O)C3C(C2=O)C2C=CC3C23CC3)cc1[N+](=O)[O-]", "note": "(centres undefined)", "Potency": "inconclusive: 20 µM [inhibitor, single point]"}
{"molecule": "CC(C)N1CC2=C(OC(N)=C(C#N)C2c2cccnc2)/C(=C/c2cccnc2)C1", "note": "(centres undefined)", "Potency": "inconclusive: 31.6 µM [inhibitor, partial curve]"}
{"molecule": "C/C(=N/Nc1nc(-c2ccccc2)cc(-c2ccccc2)n1)c1ccc(N)cc1", "Potency": "inconclusive: 12.6 µM [inhibitor, partial curve]"}
{"molecule": "CCc1ccccc1NC(=O)CCCn1c(=O)c2cccn2c2ccccc21", "Potency": "inconclusive: 20 µM [inhibitor, partial curve, poor fit]"}
{"molecule": "COc1ccc(C)c2sc(=NC(=O)c3ccccc3)n(C)c12", "Potency": "inconclusive: 5.01 µM [inhibitor, partial curve]"}
{"molecule": "COc1ccc(C(=O)Oc2ccc(C(c3c(C)[nH][nH]c3=O)c3c(C)[nH][nH]c3=O)cc2)cc1", "Potency": "inconclusive: 14.1 µM [inhibitor, partial curve]"}
{"molecule": "COc1ccc(NC(=O)c2cccs2)cc1", "activity, negative = inhibition": "inactive: -12.9%"}
{"molecule": "O=C(NC(=S)Nc1ccc(NC(=O)c2cccs2)cc1)c1ccco1", "Potency": "inconclusive: 3.98 µM [inhibitor, partial curve]"}
{"molecule": "O=C(C1CCC(CNc2c(N3CCCCC3)c(=O)c2=O)CC1)N1CCc2ccccc2C1", "note": "(centres undefined)", "activity, negative = inhibition": "inactive: 0.815%"}
{"molecule": "Cc1cc(/C=C(\\C#N)C(N)=O)c(C)n1-c1ccc(N2CCOCC2)c([N+](=O)[O-])c1", "Potency": "inconclusive: 20 µM [inhibitor, partial curve]"}
{"molecule": "O=C(NCc1ccccc1)c1nc2c(nnn2Cc2cccc(Cl)c2)c(=O)[nH]1", "activity, negative = inhibition": "inactive: -15.5%"}
{"molecule": "COc1ccc2oc(=O)c(/C(C)=N/Nc3ccccc3)cc2c1", "Potency": "active: 17.8 µM"}
{"molecule": "COC(=O)NC(CC(C)=O)c1cccc(C(F)(F)F)c1", "note": "(centres undefined)", "activity, negative = inhibition": "inactive: -6.21% [at 11.5 µM]"}
{"molecule": "C/C(CC(=O)Nc1cc(C)ccn1)=N\\NC(=O)c1ccccc1C", "Potency": "inconclusive: 12.6 µM [inhibitor, partial curve]"}
{"molecule": "CC(=O)c1ccc(NC(=O)c2ccc3nc(-c4ccco4)c(-c4ccco4)nc3c2)cc1", "Potency": "active: 12.6 µM"}
{"molecule": "O=C1[C@@H]2[C@H]3C(=CC[C@@H]2C(=O)N1Cc1ccccc1)C1(OCCCO1)[C@H]1O[C@@H]1[C@H]3O", "activity, negative = inhibition": "inactive: -11.4% [at 11.5 µM]"}
{"molecule": "Cc1ccccc1Nc1nc(CSc2nnc(-c3ccoc3C)n2C)cs1", "Potency": "inconclusive: 25.1 µM [inhibitor, partial curve]"}
{"molecule": "COc1ccc(NS(=O)(=O)c2ccc3c(c2)[C@H]2C=CC[C@H]2[C@@H](c2ccc(C(=O)O)cc2)N3)cc1", "Potency": "active: 25.1 µM"}
{"molecule": "O=C1C=C(NCc2ccccc2)c2ccccc2C1=O", "Potency": "active: 14.1 µM"}
{"molecule": "CN(C)NC(=S)Nc1ccc2nc(-c3ccccn3)c(-c3ccccn3)nc2c1", "Potency": "inconclusive: 31.6 µM [inhibitor, partial curve]"}
{"molecule": "Cc1ccccc1C(=O)N1CCN(c2ccc(NC(=O)CSc3ccc(Cl)cc3)cc2)CC1", "Potency": "inconclusive: 31.6 µM [inhibitor, partial curve]"}
{"molecule": "CCOc1cc(/C=N/NC(N)=O)cc(Br)c1OCc1ccccc1F", "activity, negative = inhibition": "inactive: -9.62%"}
{"molecule": "O=C(c1nn2c(C(F)(F)F)cc(-c3cccs3)nc2c1Br)N1CCCc2ccccc21", "activity, negative = inhibition": "inactive: -6.17%"}
{"molecule": "COc1ccc(C(C)C)cc1S(=O)(=O)n1cnc(C)c1", "activity, negative = inhibition": "inactive: -0.903%"}
{"molecule": "CCOC(=O)c1c(C)[nH]c(C(=O)N/N=C/c2ccc(Br)cc2)c1C", "Potency": "inconclusive: 0.891 µM [inhibitor, full curve]"}
{"molecule": "Fc1cccc(C[n+]2csc3ccccc32)c1", "Potency": "active: 25.1 µM"}
{"molecule": "CC(=O)c1c(C)[nH]c(C2=NNC(=NCc3ccccc3)SC2)c1C", "Potency": "inconclusive: 14.1 µM [inhibitor, partial curve]"}
{"molecule": "CSc1nsc(/C=C/Nc2ccc(O)cc2C)c1C#N", "Potency": "active: 15.8 µM"}
{"molecule": "COc1cc2c(C(=O)N3CCN(c4cccc(Cl)c4)CC3)cn(CC(C)C)c(=O)c2cc1OC", "Potency": "inconclusive: 8.91 µM [inhibitor, full curve, poor fit]"}
{"molecule": "COc1cc(-c2nc(CN3CCCN(C(=O)c4ccco4)CC3)c(C)o2)ccc1F", "activity, negative = inhibition": "inactive: 8.61%"}
{"molecule": "Cc1cc(S(=O)(=O)Nc2ccc3oc4c(c3c2)CCCC4)ccc1Cl", "activity, negative = inhibition": "inactive: -3.62%"}
{"molecule": "COCCNC(=O)C1(CC(C)C)C=CCN1C(=O)c1ccccc1", "note": "(centres undefined)", "activity, negative = inhibition": "inactive: 7.05%"}
{"molecule": "CCCn1c(C)nc2c(NCCN(C(C)C)C(C)C)nc(C)nc21", "activity, negative = inhibition": "inactive: -6.09%"}
{"molecule": "O=C(c1ccc(Cl)c(S(=O)(=O)N2CCCCCC2)c1)N1CCN(c2ccccc2O)CC1", "Potency": "inconclusive: 39.8 µM [inhibitor, single point]"}
{"molecule": "CC(=O)OC[C@H]1O[C@@H](O/N=C2/[C@H]3O[C@@H]3[C@@H](O)[C@H]3[C@H]2CCn2c(=O)n(-c4ccccc4)c(=O)n23)[C@H](OC(C)=O)[C@@H](OC(C)=O)[C@@H]1OC(C)=O", "activity, negative = inhibition": "inactive: -2.48% [at 11.5 µM]"}
{"molecule": "Oc1ccc(-c2cn3c(n2)SCC3)cc1O", "Potency": "active: 10 µM"}
{"molecule": "COc1ccc2c(c1)cc1n2CCN=C1NN", "Potency": "inconclusive: 8.91 µM [inhibitor, full curve]"}
{"molecule": "COCCCNC(=O)CSc1nc2ccccc2c(=O)n1CCC(=O)NCCc1ccc(OC)c(OC)c1", "activity, negative = inhibition": "inactive: -3.48%"}
{"molecule": "COc1ccc(Cl)cc1NC(=O)Cn1nnc2sc(-c3ccccc3)cc2c1=O", "Potency": "inconclusive: 15.8 µM [inhibitor, partial curve, poor fit]"}
{"molecule": "CCOC(=O)c1ccc(N2N=C(C)/C(=C/C=C/c3ccco3)C2=O)cc1", "Potency": "active: 3.16 µM"}
{"molecule": "Cc1ccc(NC(=O)c2nc[nH]c2C(=O)N2CCN(c3ccccc3)CC2)cc1", "activity, negative = inhibition": "inactive: -4.6%"}
{"molecule": "CCC(c1nnc(SCC(=O)Nc2ccc(C(=O)Nc3ccccc3OC)cc2)o1)N(C)C", "note": "(centres undefined)", "Potency": "inconclusive: 35.5 µM [inhibitor, partial curve]"}
{"molecule": "CCOC(=O)c1ccc(NC(=S)N2CCN(c3ccc(N4CCOCC4)nn3)CC2)cc1", "Potency": "inconclusive: 2.24 µM [inhibitor, full curve]"}
{"molecule": "CCOC(=O)c1cc2c(=O)n3ccccc3nc2n(Cc2ccco2)c1=NC(=O)c1cccc(Br)c1", "activity, negative = inhibition": "inactive: -21.7%"}
{"molecule": "Cc1ccc(Cl)cc1N1CCN(C(=O)c2noc3c2CCCC3)CC1", "activity, negative = inhibition": "inactive: -15.9%"}
{"molecule": "CN(C)c1ccc(CNC(=O)c2ccc(CNc3c(N4CCCCC4)c(=O)c3=O)cc2)cc1", "activity, negative = inhibition": "inactive: -18.6%"}
{"molecule": "CCCOc1ccc(NC(=O)C2CC(=O)N/C(=N/N=C(\\C)CCc3ccc4c(c3)OCO4)S2)cc1", "note": "(centres undefined)", "Potency": "inconclusive: 17.8 µM [inhibitor, partial curve]"}
{"molecule": "Cc1cc(Oc2nc3c(C)cccn3c(=O)c2/C=C(\\C#N)S(=O)(=O)c2ccc(Cl)cc2)ccc1Cl", "Potency": "inconclusive: 1.78 µM [inhibitor, full curve]"}
{"molecule": "Cc1nc(N2CCOCC2)nc2c1CCC2", "activity, negative = inhibition": "inactive: -5.43%"}
